{"source": "PubChem BioAssay AID588855", "about": "(National Center for Advancing Translational Sciences (NCATS), 2011)", "note": "“And” between values parts separate entries of the source, which are not always exact repeats. Identical values can stand only once. In all, about 410,000 compounds went through this assay and about 5,000 (1.2%) were called active. This list was built around the results that the source calls inconclusive (neither active nor inactive); the mix of calls is not that of the screen. The call rests on the fitted dose curve; in most records, active means well fitted inhibition curve with a large enough effect; inconclusive means small, poorly fitted or top-dose-only effect; inactive means no such curve, though single readings can be large or run the other way. Potencies of inconclusive entries are doubtful fits and often do not repeat. Potency means the concentration at half of the fitted maximal effect; tags describe the fitted curve by direction and shape."}
{"assay": "qHTS for Inhibitors of TGF-b; further: nearly all actives have a fitted effect of over 65% in size", "settings": "HepG2 CAGA-GFP TGF-b/SMAD3 reporter, GFP fluorescence, 18 h, TGF-beta stimulated, 500 pg/mL final; series mostly up to 46.1 µM", "how_it_was_run": "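HEPG2 CAGA-GFP reporter cells (1000/well, DMEM with 1% FBS) received compounds, then recombinant TGF-beta at 500 pg/mL final for 18 hours at 37 degrees C. Per-cell GFP summed per well was normalised to unstimulated and stimulated DMSO controls before curve fitting.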"}
{"compound": "O=C(NC1CCCCC1)c1ccc(CSc2nc3ccncc3n2Cc2cccc(F)c2)cc1", "Potency": "inconclusive: 3.98 µM [inhibitor, partial curve, poor fit]"}
{"compound": "Cc1ccc(C(=O)NC(=S)Nc2ccccc2N2CCCC2)cc1[N+](=O)[O-]", "Potency": "inconclusive: 5.62 µM [inhibitor, single point]"}
{"compound": "CCOc1ccc(N(CC(=O)Nc2ccccc2OCC)S(=O)(=O)c2c(C)noc2C)cc1", "Potency": "active: 5.01 µM"}
{"compound": "COc1cccc(C2=CC(c3ccccc3F)n3ncc(C(=O)Nc4ccc(F)cc4)c3N2)c1", "note": "(stereo unspecified)", "Potency": "inconclusive: 35.5 µM [inhibitor, single point]"}
{"compound": "O=C(CC1SC(=O)NC1=O)Nc1ccc(Cl)cc1", "note": "(stereo unspecified)", "Potency": "inactive"}
{"compound": "COc1ccc(NC(=O)c2cc(-c3cc(Cl)ccc3O)n[nH]2)c(OC)c1", "Potency": "inactive"}
{"compound": "C[C@@H]1CCCCO[C@@H](CN(C)C(=O)CCC(F)(F)F)[C@@H](C)CN([C@H](C)CO)C(=O)c2cc(N(C)C)ccc2O1", "Potency": "inconclusive: 25.1 µM [inhibitor, single point]"}
{"compound": "CC(O)(c1ccc(F)c(F)c1)c1nc(-c2ccc3ccccc3c2)cs1", "note": "(stereo unspecified)", "Potency": "inconclusive: 25.1 µM [inhibitor, single point]"}
{"compound": "O=C(CSc1nnc2scc(-c3ccc(Cl)cc3)n12)Nc1ccc(F)cc1", "Potency": "inactive"}
{"compound": "COc1ccccc1C(=O)NC1(C(F)(F)F)NC(=O)N(CCc2ccccc2)C1=O", "note": "(stereo unspecified)", "Potency": "inconclusive: 35.5 µM [inhibitor, single point]"}
{"compound": "Cc1nn(-c2ccc(F)cc2)c(N)c1C1(O)C(=O)Nc2ccccc21", "note": "(stereo unspecified)", "Potency": "inactive"}
{"compound": "COC(=O)C(CC(=O)c1ccc(Br)cc1)n1nc(C)cc1C", "note": "(stereo unspecified)", "Potency": "inconclusive: 20 µM [inhibitor, single point]"}
{"compound": "O=C(CN(C1CCCCC1)C1CCCCC1)N1CCc2ccccc2C1", "Potency": "inconclusive: 25.1 µM [inhibitor, single point]"}
{"compound": "NC(=O)CC(NC(=O)Cc1ccc(Br)cc1)c1ccc(NCCOc2ccccc2)c([N+](=O)[O-])c1", "note": "(stereo unspecified)", "Potency": "inconclusive: 3.16 µM [inhibitor, full curve, poor fit]"}
{"compound": "COc1cc(C(C)=O)ccc1OCC(O)CN1CCN(c2cc(C)cc(C)c2)CC1", "note": "(stereo unspecified)", "Potency": "inactive"}
{"compound": "Cc1ccc(S(=O)(=O)Nc2cc(=O)[nH]c(SCC(=O)Nc3cccc(C)c3)n2)cc1", "Potency": "inactive"}
{"compound": "N#C/C(=C(/O)c1ccc(-c2cccc([N+](=O)[O-])c2)o1)c1nc2ccccc2s1", "Potency": "active: 12.6 µM"}
{"compound": "OC(COCCOc1ccc(Br)cc1)CN1CCN(Cc2ccccc2)CC1", "note": "(stereo unspecified)", "Potency": "inconclusive: 35.5 µM [inhibitor, single point]"}
{"compound": "CCn1c(CCNC(=O)c2ccc(OC)cc2)nnc1SCc1ccc(Cl)c(Cl)c1", "Potency": "inconclusive: 35.5 µM [inhibitor, single point]"}
{"compound": "CC(=O)O[C@H]1CC(C)(C)C(=C=C/C(C)=C/C=C/C(C)=C/C=C/C=C(C)/C=C/C=C(\\C)C(=O)C[C@@]23O[C@]2(C)C[C@@H](O)CC3(C)C)[C@](C)(O)C1", "Potency": "inconclusive: 11.2 µM [inhibitor, partial curve, poor fit]"}
{"compound": "Cc1cc(C)cc(N(CC(=O)Nc2ccccc2-c2ccccc2)S(=O)(=O)c2ccccc2)c1", "Potency": "inactive"}
{"compound": "Cc1ccc(NC(=O)c2nc[nH]c2C(=O)N[C@@H](C)c2ccccc2)cc1", "Potency": "inconclusive: 25.1 µM [inhibitor, single point]"}
{"compound": "N#C/C(=C/c1ccc(Oc2ccc([N+](=O)[O-])cn2)cc1)C(=O)N1CCOCC1", "Potency": "inactive"}
{"compound": "COc1ccc(C(=O)N2CCN(CCCc3ccccc3)CC2)cc1OC", "Potency": "inconclusive: 35.5 µM [inhibitor, single point]"}
{"compound": "CCOC(=O)c1[nH]c(C)c(C(=O)Nc2ccc(C)c(C)c2)c1C", "Potency": "inactive"}
{"compound": "CC1(C)CCC/C(=C\\c2ccccc2)C1=O", "Potency": "inconclusive: 8.91 µM [inhibitor, partial curve, poor fit]"}
{"compound": "COc1ccc(NC(=O)Nc2ccc3c(c2)C(=O)N([C@H](C)CO)C[C@H](C)[C@@H](CN(C)C(=O)Nc2ccc(C(F)(F)F)cc2)O3)cc1", "Potency": "inconclusive: 35.5 µM [inhibitor, single point]"}
{"compound": "CON(C)c1nc(OCCNC(=O)OCc2ccc(Cl)cc2Cl)nc(N(C)C)n1", "Potency": "inactive"}
{"compound": "Cc1cccc(-n2cc(CNCCc3nc(C)cc(C)n3)c(-c3cccc(F)c3)n2)c1", "Potency": "active: 11.2 µM"}
{"compound": "COc1cc2c(cc1OC)CN(C(=O)CNS(=O)(=O)c1ccc(C)c(C)c1)CC2", "Potency": "inactive"}
{"compound": "Cc1ccc(NC(=O)c2ccc(-n3cncn3)c([N+](=O)[O-])c2)cc1", "Potency": "inactive"}
{"compound": "COc1ccc(C(CCN2CCCC2)c2c(OC)cc(OC)c3c(-c4ccccc4)cc(=O)oc23)cc1", "note": "(stereo unspecified)", "Potency": "inconclusive: 11.2 µM [inhibitor, partial curve, poor fit] and inconclusive: 35.5 µM [inhibitor, single point]"}
{"compound": "Cc1ccc2c(Sc3ccc(Cl)cc3)c(C(=O)N3CCCCC3)[nH]c2c1", "Potency": "inconclusive: 11.2 µM [inhibitor, partial curve, poor fit]"}
{"compound": "CN(/N=C/c1ccc(O)cc1O)c1nc(-c2ccccc2)cc(-c2ccccc2)n1", "Potency": "inactive"}
{"compound": "Cc1ccc(SC(CC(=O)c2ccc(C(C)(C)C)cc2)C(=O)O)cc1", "note": "(stereo unspecified)", "Potency": "inconclusive: 35.5 µM [inhibitor, single point]"}
{"compound": "O=S(=O)(c1ccc(Cl)nc1)N1CCN(Cc2ccc3c(c2)OCO3)CC1", "Potency": "inconclusive: 15.8 µM [inhibitor, single point]"}
{"compound": "Cc1ccc(S(=O)(=O)C2(C(=O)Nc3nccs3)CC2)cc1", "Potency": "inconclusive: 35.5 µM [inhibitor, single point]"}
{"compound": "CC(C)(C)c1nnc(NC(=O)CCS(=O)(=O)c2ccccc2)s1", "Potency": "active: 7.08 µM"}
{"compound": "CC(=O)Oc1ccc2ccccc2c1C(NC(=O)Cc1ccccc1)c1ccccc1Cl", "note": "(stereo unspecified)", "Potency": "inconclusive: 35.5 µM [inhibitor, single point]"}
{"compound": "Cc1cccc(C(=O)N2CCN(Cc3ccc4c(c3)OCO4)CC2)c1", "Potency": "inactive"}
{"compound": "CCS(=O)(=O)c1ccc(C(=O)N2CCN(c3nc4c(OC)ccc(C)c4s3)CC2)cc1", "Potency": "inconclusive: 11.2 µM [inhibitor, single point]"}
